This is one part of the list. Shown are side measurements of this screen, not its main read-out; they come without a call.
What was measured:
Assay in all cases: Primary Screen for Target Class Profiling of Small Molecule Inhibitors of Methyltransferases
[1] = target: Glycine N-methyltransferase (Homo sapiens) (UniProt Q14749); settings: purified enzyme, MTase-Glo SAH luminescence; measured here: GNMT inhibition; at 40 µM; stronger effect = lower value
Summary of the method: (§1)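 Each enzyme was assayed with SAM and its substrate. SAH formation detected by MTase-Glo luminescence; single-point 40 uM screen[…].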

[2] = target: Guanidinoacetate N-methyltransferase (Homo sapiens) (UniProt Q14353); settings: purified enzyme, MTase-Glo SAH luminescence; measured here: GAMT inhibition; at 40 µM; stronger effect = lower value
Summary of the method: as §1

[3] = target: Histamine N-methyltransferase (Homo sapiens) (UniProt P50135); settings: purified enzyme, MTase-Glo SAH luminescence; measured here: HNMT inhibition; at 40 µM; stronger effect = lower value
Summary of the method: as §1

[4] = target: Nicotinamide N-methyltransferase (Homo sapiens) (UniProt P40261); settings: purified enzyme, MTase-Glo SAH luminescence; measured here: NNMT inhibition; at 40 µM; stronger effect = lower value
Summary of the method: as §1

[5] = target: Phenylethanolamine N-methyltransferase (Homo sapiens) (UniProt P11086); settings: purified enzyme, MTase-Glo SAH luminescence; measured here: PNMT inhibition; at 40 µM; stronger effect = lower value
Summary of the method: as §1
On the % scale 0 is the no-effect control and ±100 the full control effect.

| Structure (SMILES) | activity change, negative = inhibition [1] [%] | activity change, negative = inhibition [2] [%] | activity change, negative = inhibition [3] [%] | activity change, negative = inhibition [4] [%] | activity change, negative = inhibition [5] [%] |
| --- | --- | --- | --- | --- | --- |
| CC1(C)CC[C@]2(C(=O)O)CC[C@]3(C)C(=CCC4[C@@]5(C)C[C@@H](O)[C@H](O)[C@@](C)(CO)C5[C@H](O)C[C@]43C)[C@@H]2C1 (some centres undefined) | 4.36 | 7.19 | 6.92 | -5.18 | 7.81 |
| CC(c1ccccc1)N1C(=O)c2ccccc2CC1(C)C(=O)NC1CCCCCCC1 (centres undefined) | -2.64 | 0.635 | 7.14 | -2.02 | 3.01 |
| Cc1ccccc1NC(=O)c1ncn2c1C(=O)N(C1CC1)C(C)(C(=O)NCc1ccc(F)cc1)C2 (centres undefined) | 3.78 | 0 | 9.81 | 4.55 | 7.5 |
| CCOC(=O)c1cc2n(n1)CC(C)(C(=O)NC1CCC(C)CC1)N(c1cc(C)cc(C)c1)C2=O (centres undefined) | 3.31 | 0.919 | 2.83 | -2.1 | 2.79 |
| Cc1nnc([C@H]2CCN(C(=O)c3ccccc3)C2)o1 | -0.488 | 2.17 | 0.131 | -5.31 | 12.7 |
| Cc1cnc(C(=O)NC2C[C@H]3CC[C@@H](C2)N3C(=O)c2ccccc2C)cn1 (some centres undefined) | -1.54 | 2.59 | 1.25 | -5.95 | -0.016 |
| CC(C)(C(=O)NCC(F)(F)C(F)(F)F)C(=O)NC1C(=O)Nc2ccccc2-c2ccccc21 (centres undefined) | 5.01 |  | 6.3 |  |  |
| CC(C)CCn1c(=O)c2ccc(C(=O)NCC(C)C)cc2n2c(=O)n(CC(=O)N(C)c3ccccc3)nc12 | -0.349 | 0 | 6.34 | -10.2 | 1.21 |
| Cc1ccc(C)c(OCc2cc(C(=O)N3CCC(N4CCSCC4)CC3)no2)c1 | -1.4 | -4 | -2.81 | -8.44 | 0.764 |
| Cn1c(=O)c2ccc(C(=O)NC3CCCC3)cc2n2c(SCc3ccc(Cl)cc3)nnc12 | -7.78 | -0.249 | -0.388 | 1.57 | -0.056 |
| COC(=O)[C@@]1(C)CC[C@]2(C(=O)O[C@@H]3O[C@H](CO)[C@@H](O)[C@H](O)[C@H]3O)CC[C@]3(C)C(=CCC4[C@@]5(C)CC[C@H](O[C@@H]6O[C@H](C(=O)O)[C@@H](O)[C@H](O)[C@H]6O)C(C)(C)C5CC[C@]43C)[C@@H]2C1 (some centres undefined) | 0 | -8.15 | 6.04 | -23.6 | -9.15 |
| COC(=O)c1cc2n(n1)CC(C)(C(=O)NC1CCCCCC1)N(c1cc(C)ccc1C)C2=O (centres undefined) | -0.753 | -1.72 | -18.8 | 1.71 | -0.579 |
| N#Cc1cccc(S(=O)(=O)N[C@@H]2CCOC[C@H]2OCc2cscn2)c1 | -6.4 | -3.42 | -0.775 | -6.23 | 1.34 |
| O=C([C@H](O)c1ccccc1)N1CCc2onc(-c3cccc4ccccc34)c2C1 | -11.8 | -6.62 | -7.36 | -21.3 | -1.65 |
| COc1ccc2cc3n(c2c1)CC(C)(C(=O)NC1CCCCC1)N(CCCN1CCOCC1)C3=O (centres undefined) | 3.34 | 1.38 | -0.834 | 0.923 | -3.33 |
| CC[C@H](CO)Nc1nc(NCc2ccc(-c3ccccn3)cc2)c2ncn(C(C)C)c2n1 | -9.45 | -3.08 | 6.5 | -33.6 | -5.65 |
| CCOC(=O)CNC(=O)N1Cc2c(sc3c2CCCC3)-n2cccc2C1c1cccc(OC)c1 (centres undefined) | -3.26 | 2.2 | -2.24 | -10.5 | 1.65 |
| Cn1c(=O)n(C)c2cc(S(=O)(=O)Nc3ccccc3)ccc21 | -3.01 | 2.07 | 1.88 | 5.54 | 0.031 |

| Structure (SMILES) | activity change, negative = inhibition [1] [%] | activity change, negative = inhibition [2] [%] | activity change, negative = inhibition [3] [%] | activity change, negative = inhibition [4] [%] | activity change, negative = inhibition [5] [%] |
| --- | --- | --- | --- | --- | --- |
| COc1ccc(-n2nc3n(c2=O)CCN([S+](=O)([O-])c2c(C)noc2C)C3)cc1 | -9.15 | -9.5 | -3.06 | -19.9 | -9.85 |
| COc1cccc(NC(=O)N2Cc3c(sc4c3CCCC4)-n3cccc3C2c2cccc(OC)c2)c1 (centres undefined) | 0.722 | 1.75 | 8.03 | -1.62 | 6.47 |
| C=C(C(=O)O)[C@@H]1CC[C@@]2(C)CC[C@@H](O)C(=C)C2C1 (some centres undefined) | 0.963 | -1.41 | 4.02 | -12.6 | -2.41 |
| COc1ccc(CCNC(=O)c2ccc3c(=O)nc4c(-c5cccc(F)c5)n[nH]n4c3c2)cc1OC | -44.1 | -2.12 | -8.98 | -6.64 | -9.55 |
| CN1C(=O)c2cc(C(=O)NCc3ccc(F)cc3)nn2CC1(C)C(=O)NC1CCCCC1 (centres undefined) | 4.47 | 3.14 | 0.519 | 3.11 | 1.65 |
| CCCn1c(=O)c2ccccc2n2c(=O)n(CC(=O)N3CCN(c4ccc(F)cc4)CC3)nc12 | 2.38 | 0 | 5.08 | -7.46 | 2.8 |
| CC1CC(=O)C2=C(O1)OC1(C)CCC3C(C)(C)C4OC4C(=O)C3(C)C1C2 (centres undefined) | 2.4 | 3.21 | 9.89 | -95 | -0.403 |
| CC(=O)N1CCC(Cc2ccc(CN(C(=O)CCc3ccccc3)C3CC3)cc2)CC1 | -10.1 | -0.068 | -5.01 | -16.6 | -2.35 |
| CCCSCCCN1C(=O)c2cc3ccccc3n2CC1(C)C(=O)NC1CCCCC1 (centres undefined) | -5.85 | 5.27 | -4.53 | -1.28 | -3.33 |
| COC1CC(O[C@H]2CC[C@@]3(C)C(=CC[C@]4(O)C3[C@H](O)[C@@H](O)[C@]3(C)[C@@H]([C@H](C)O)CC[C@@]34O)C2)OC(C)C1OC1CC(OC)C(OC2CC(OC)C(OC3OC(C)C(OC4OC(CO)C(O)C(O)C4O)C(OC)C3O)C(C)O2)C(C)O1 (some centres undefined) | 0 | 3.02 | 12.2 | -8.64 | -1.54 |
| C[C@@H]1CN(Cc2ccc(F)cc2)[C@@H](C)CN1C(=O)c1cc2c(C(=O)C(=O)N(C)C)cn(C)c2cc1Cl | 0.062 | 8.81 | 9.95 | -13.2 | 8.26 |
| CNC(=O)c1ccccc1Nc1nc(Nc2ccc3c(c2OC)CCC[C@@H](N2CCN(CCO)CC2)C3)ncc1Cl | -14.3 |  | -33.6 |  |  |
| Cc1ccc(C)c(NC(=O)Cn2ccn3nc4c(c3c2=O)CCCCC4)c1 | -3.54 | -3.56 | 0.077 | -9.72 | -5.7 |
| O=C(c1nc(-c2ccsc2)c2cnccn12)N1CCCC1 | -10.6 | -7.37 | -11 | -26.4 | -4.38 |
| CC(C(=O)N1CCc2onc(-c3ccc(F)c(F)c3)c2C1)n1ccnc1 (centres undefined) | -3.16 | -1.19 | 0.75 | 0.367 | 2.81 |
| CCNC(=O)N1CCC(Oc2ncccc2C(=O)N2CCCCC2)C1 (centres undefined) | -1.49 | -0.248 | 1.31 | -5.45 | -2.02 |
| COc1cc(C2Oc3c(OC)cc(CCCO)cc3C2CO)ccc1O[C@H]1O[C@H](C)[C@@H](O)[C@H](O)[C@@H]1O (some centres undefined) | -0.359 | -1.3 | 9.43 | -13.5 | -9.95 |

Reference: PubChem BioAssay AID1745853 (National Center for Advancing Translational Sciences (NCATS), 2022)
